B1: OR4K15 (parent)
chain: GUUAACGGUCAUAGGCCAUGGAAACUAGGAGCACCAUUUCGCUGCCAGUGAAGAAAUGAACAAAGAAAAUCUGGGCCAGGCAGGCAUCAAAAGAAAUAGUCUUGCGCUCAACCAGAAAGUCUGUAAUCAUUUUAAGGGUA

The source gives no read counts; variants with many changes may rest on few reads.

Among the data in the RNAGym collection of RNA variant scans (doi:10.7554/elife.90254) are self-cleavage values, retold here.

The data set covers variants of B1. Kind of data set: self-cleavage, relative activity (ratio to wild type); higher = more cleavage; in vitro, sequencing; the parent is a self-cleaving ribozyme.
With A36G U57C A110G U127C, the self-cleavage was 0.03. For the variant A36U A47G A56G A64U A129G, the self-cleavage is 0.21. In the case of U37C C88A U131C it was 0.16; in that of U38C A51G U72C A117U, 0.17. Regarding A36U G84C A91G U127C U130C, the self-cleavage worked out at 0.06.

As to U38C A51G A59G U131C, the self-cleavage was 1.17.

On to U37C A69G A116G A126G, for which the self-cleavage was found to be 0.58. With U38C A51G A60G, the self-cleavage turned out to be 1.59.

U37C A82C U130C: the self-cleavage was 0.11. For U37C A59G U100C A118G U122C A125G, the self-cleavage is 1.78.

A36U U49C U87C: the self-cleavage was found to be 1.37. Consider U38C A51G A54G C101A A114U, for which the self-cleavage was determined as 0.02. For the variant U37C A52G A78G, the self-cleavage worked out at 0. On to U37C A51G G137A, for which the self-cleavage worked out at 1.92. Regarding U38A A47G A64G U100C, the self-cleavage amounted to 2.47. The value for A36U U39C A86G A89U U103A was 0.19; that for A36U A60G U103C U130A was 0.56; that for U38C A51U A63G G115A U124A was 0.04. With U37C A51G A134G, the self-cleavage was 1.85. U37C A64U A82U U133A: the self-cleavage was 0.19. Take U38C A51U A54G U87A A90G A92G: the self-cleavage was 1.44. For A36U U38G A60G A64U U70C U87C, the self-cleavage stood at 0.08. As for A36U A52G U130G, the self-cleavage turned out to be 0.8. In the case of A36G U37C A52G A78G A110C A118U U124C, the self-cleavage was found to be 0.02.

Consider C35U A47U A55G A64G U100C C113U U122C, for which the self-cleavage amounted to 0.02. On to U37C A59U A94G U132C, for which the self-cleavage was 1.4.

Take U37C U122C A129G: the self-cleavage is 0.78. The value for A36C A56G U102C A111G was 0.01. Regarding U37C C46A A47C A62G U102A U122C, the self-cleavage is 0.72. Consider U38A A118G A135G, for which the self-cleavage amounted to 1.97. As to A36G A68G A78G, the self-cleavage stood at 0.3. Turning to A36U A59G U130C, the self-cleavage is 1.68. On to U37C A69G U72C U124A, for which the self-cleavage is 0.2. For U37C A78U A117G, the self-cleavage was 0.09. The value for U37C U108C G138A was 0.02. Take U37C U39A A64C U108C: the self-cleavage was 0.04. A36C A55G A59G A64U U103C: the self-cleavage amounted to 1.45. As to A36G A64G A89G A118G, the self-cleavage amounted to 0.37. Turning to U38A U43G U49C A54G, the self-cleavage was 1.67.

As to A36U A64U A140U, the self-cleavage was 1.88. The value for U37C A64G U87C A125G was 0.46. For A36G A59U A60G A62G A90G, the self-cleavage stood at 0.87.

Take U37C A94G C107A: the self-cleavage was determined as 0.03.

For the variant A36G A52G A82G A95G U122C, the self-cleavage is 0.75. The value for U37C A47G A64U A134G was 0.06; that for U37G U38C A135U was 1.36. Regarding U37C A90G U122C U139C, the self-cleavage came out at 0.76.

With U37C A60G A95G, the self-cleavage was found to be 0.82. In the case of U37C G44A A51G A62G G73A A89G, the self-cleavage came to 0.28. For the variant A36U C46A A63G A66G, the self-cleavage was found to be 1.42.

With A36U A47G A63G U132C, the self-cleavage was found to be 0.99.

Consider U37C A51G A56G U100C, for which the self-cleavage stood at 2.13. For U37G U87C A90G, the self-cleavage was 0.46. For the variant U38A A67G U100C, the self-cleavage turned out to be 2.29. Consider U37C A54G U70G A110G, for which the self-cleavage stood at 0.19. Regarding A36G U43C A67G U100C C112G A140G, the self-cleavage stood at 0.01. Take U38A U39C A52G A134U: the self-cleavage was 1.38.

Turning to U37C G123A U130A, the self-cleavage turned out to be 0.34.

As for A36G G106A A129G, the self-cleavage turned out to be 0. Turning to U37C A51U U124C, the self-cleavage is 1.11.

Consider A36G U37C A64C A86G, for which the self-cleavage was 0.89. Consider U37G A47U A114G, for which the self-cleavage amounted to 0.34. As for U37C A54G U132C, the self-cleavage came out at 2.39. The value for U37C A51G A78C A114G was 0.04; that for U37C U39A A56G A116U was 0.51. For U38C A52G A64G A82U, the self-cleavage worked out at 0.25.

On to U37C A67G A118G, for which the self-cleavage amounted to 0.73.

Take U37C U43A U72A U127C U132C: the self-cleavage was 0.2. Turning to A36U A69G A89G, the self-cleavage is 1.46.

As for A36G A47U G115U, the self-cleavage was determined as 0.1. In the case of A36U U49A A91G A92G A117G it was 0.92. In the case of A36G U37C A66G U72A A82G A89U A135G it was 0.11. On to A36G G58U A64G A86G, for which the self-cleavage is 0.96. In the case of U38C A52G U70G A78C it was 0.37; in that of U37C A60G A69G, 0.7. A36G U39C A64U A96G: the self-cleavage came to 1.57. For the variant U38A U49C A54G G65A U132C, the self-cleavage turned out to be 2.32. Regarding A36G A67G A134G, the self-cleavage came out at 1.95. The value for U37C U87C A92G U103G was 0.03. For the variant U37C A68G U127C, the self-cleavage came out at 0.77. As for U37A U130C U132C, the self-cleavage came to 1.23.

For the variant U38A A54G A91U A117G, the self-cleavage amounted to 1.1. As to U37C U130C A140G, the self-cleavage was determined as 0.87. As for A36G A67G A78G A140G, the self-cleavage was 0.41. In the case of A36G U37C A55G A92G, the self-cleavage is 1.78. Take A36G U103A A111G: the self-cleavage stood at 0.02. For the variant U37C A59U U100C, the self-cleavage worked out at 2.56. Take C35U A60G A94U: the self-cleavage stood at 0.66. For the variant A36U A51G A55G, the self-cleavage turned out to be 1.1. Turning to U38A U57C A91G A117G A118U, the self-cleavage is 0.77. The value for C35U A63G A116G was 0.36. In the case of U37C A66G A134G it was 1.48. The value for U37C U39C A52G U57C A68G was 0.75; that for A36G U37C A67G U72C A89G A117G was 0.25. With U37C A62G A118G, the self-cleavage was 0.57. In the case of U37C U49C U127C, the self-cleavage stood at 0.67. On to A36G A68G U131C, for which the self-cleavage was 1. The value for C35U A52U A90G U108C U120C was 0; that for A36G A62G A96G was 1.32. As to A36G U57C A129G, the self-cleavage was 1.18. A36G A66G A98G: the self-cleavage turned out to be 1.07. The value for U37C A116G C128A was 0.45.

Take A36C A52G A114G U122C: the self-cleavage is 0.13.

For the variant A36U A59G U100C, the self-cleavage was determined as 2.13. For U37C A52C A110G A135G, the self-cleavage was determined as 0.09.

On to U37C U70C A135G, for which the self-cleavage is 1.16. On to A36U U39A A89U A117U, for which the self-cleavage worked out at 1. As to A36U U72A U130C, the self-cleavage worked out at 0.09. As to C35U A126G U127A, the self-cleavage turned out to be 0.32. For the variant A36G A59G U108C, the self-cleavage is 0.02. Regarding U37A A56G A94G, the self-cleavage turned out to be 1.4. In the case of U37C A54U A82G A116G A126U it was 0.36; in that of C35U U43C A78U U108C U120C U132A U133C A140G, 0. The value for C35U A95G U100A U102C was 1.88; that for U37C U57C A63G A90G was 1.07; that for C35U G74A U131C was 0.13. In the case of U37C A56G G138U it was 1.25; in that of A36G A67U U122A A126G, 1.63. For the variant U38C A52G U87C A94G A125G, the self-cleavage was 0.6. Consider U38A A67G U70A, for which the self-cleavage came to 1.36. The value for U37C A62G U102A A110C U124C G137U was 0.04; that for A36G A51G A90G was 2.03; that for C35U U43C A52G U100A was 0.42.

A36G A94G A95G A96G U102A A114U U127C U131C U139C: the self-cleavage is 0. Take A36G A82U C88A U132C: the self-cleavage stood at 0.19. With U38A A66G A68U U70C U102C, the self-cleavage amounted to 1.05.

On to C34U U43C A78G A114G A135G U139G A140U, for which the self-cleavage was 0.01. Consider A36G U38C A96U U103C, for which the self-cleavage amounted to 0. As for U37C A54G A89U U102A A111G A116G, the self-cleavage worked out at 0.01.

For the variant A36U A68G G83A A90G, the self-cleavage stood at 0.81.

For the variant A36U A64G U70C A78G U87C U100G, the self-cleavage is 0.32. For the variant A36U U100A A116G U130C G138U, the self-cleavage stood at 0.05. As to A36U U102C A114U A116G, the self-cleavage turned out to be 0.04. Turning to U37C A63U A86G A111G, the self-cleavage came to 0.03. Regarding A36C G48C A51G U131C, the self-cleavage amounted to 1. For U38A A60G A94G A126G, the self-cleavage was determined as 0.2. Turning to U37C C46U C61U A89U, the self-cleavage is 2.06. As for A36U A78G U124A, the self-cleavage is 0.14.

Regarding A36G A64G U72A, the self-cleavage stood at 0.26. Consider U37C A51G U70C A78U A92G, for which the self-cleavage was 0.31. In the case of A36G U72C A96G, the self-cleavage came out at 0.2. U37C U87C A91G A96G: the self-cleavage was 0.96. Take A36G U39C A47C A54G A135G: the self-cleavage amounted to 0.87. Regarding U37C A62G U132A, the self-cleavage came out at 0.93. As to A36C A60G G106A A111G A117U U127C, the self-cleavage amounted to 0. In the case of U38A A86U G137C it was 2.09; in that of U37A U39C U97A A126U, 1. The value for U37C U70C U132C was 0.89; that for A36U A59G A114G A140G was 0.53; that for A36G A51G U57C A95G A125G was 0.55. In the case of A36C U37C A47U it was 0.75; in that of A36G U38C U132C, 0.94; in that of C35U G41C U102C, 1.51. Turning to U38A A82U A96G A111G, the self-cleavage turned out to be 0.01. Consider A36G A62U A92G, for which the self-cleavage amounted to 2.06. Take U37C U49A A96G: the self-cleavage was 1.8. The value for C35A A54G A78U U122C was 0.12; that for U37C A60U A94G A135G was 2.26; that for U37C A64G A95G U103C U131C was 1.02. With A36U A51G A86U, the self-cleavage was 1.29.

On to U37C A90G U100A A126U, for which the self-cleavage came out at 0.31. As for A36G A54G A62U U127C A129G U130C, the self-cleavage was determined as 0.27. Turning to A36G A51G A60G A68U A92G A98G, the self-cleavage worked out at 0.25. Take A36U A66G A96G: the self-cleavage worked out at 1.34. In the case of A36U U70G A110C it was 0.15. With U37C U108A U130C, the self-cleavage is 0. For U37C G41A U72C A94G, the self-cleavage was found to be 0.25.
